Reference: the supplement of paper PMC8728848
This is one part of the list.

Assays:
Assay in all cases: glycan array binding signal (z-score within array); higher = stronger binding
Details in all cases: glycan notation: IUPAC condensed, linker removed
[1] = target: Neu5Ac(a2-3)Gal(b1-3)GlcNAc6S
Summary of the method: (§1)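 From the Consortium for Functional Glycomics database, 3228 arrays were curated, keeping only those whose protein sequence was available. Binding is given as a within-array Z-score averaged across arrays sharing a protein sequence and across linkers. Negative Z-scores can be read as non-binding.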

[2] = target: Neu5Ac(a2-3)Gal(b1-3)[Fuc(a1-4)]GlcNAc
Summary of the method: as §1

[3] = target: Neu5Ac(a2-3)Gal(b1-3)[Fuc(a1-4)]GlcNAc(b1-3)Gal(b1-3)[Fuc(a1-4)]GlcNAc
Summary of the method: as §1

[4] = target: Neu5Ac(a2-3)Gal(b1-3)[Fuc(a1-4)]GlcNAc(b1-3)Gal(b1-4)[Fuc(a1-3)]GlcNAc
Summary of the method: as §1

[5] = target: Neu5Ac(a2-3)Gal(b1-3)[GlcNAc(b1-6)]GalNAc
Summary of the method: as §1

[6] = target: Neu5Ac(a2-3)Gal(b1-3)[Neu5Ac(a2-6)]GalNAc
Summary of the method: as §1

[7] = target: Neu5Ac(a2-3)Gal(b1-3)[Neu5Ac(a2-6)]GlcNAc(b1-3)[Fuc(a1-3)[Gal(b1-4)]GlcNAc(b1-6)]Gal(b1-4)Glc
Summary of the method: as §1

[8] = target: Neu5Ac(a2-3)Gal(b1-3)]Neu5Ac(a2-3)Gal(b1-4)]GlcNAc
Summary of the method: as §1

[9] = target: Neu5Ac(a2-3)Gal(b1-4)Glc
Summary of the method: as §1

[10] = target: Neu5Ac(a2-3)Gal(b1-4)GlcNAc
Summary of the method: as §1

[11] = target: Neu5Ac(a2-3)Gal(b1-4)GlcNAc(b1-2)Man
Summary of the method: as §1

[12] = target: Neu5Ac(a2-3)Gal(b1-4)GlcNAc(b1-2)Man(a1-3)[GlcNAc(b1-4)][Neu5Ac(a2-3)Gal(b1-4)GlcNAc(b1-2)Man(a1-6)]Man(b1-4)GlcNAc(b1-4)GlcNAc
Summary of the method: as §1

[13] = target: Neu5Ac(a2-3)Gal(b1-4)GlcNAc(b1-2)Man(a1-3)[Neu5Ac(a2-3)Gal(b1-4)GlcNAc(b1-2)Man(a1-6)]Man(b1-4)GlcNAc(b1-4)GlcNAc
Summary of the method: as §1

[14] = target: Neu5Ac(a2-3)Gal(b1-4)GlcNAc(b1-2)Man(a1-3)[Neu5Ac(a2-3)Gal(b1-4)GlcNAc(b1-2)Man(a1-6)]Man(b1-4)GlcNAc(b1-4)[Fuc(a1-6)]GlcNAc
Summary of the method: as §1

[15] = target: Neu5Ac(a2-3)Gal(b1-4)GlcNAc(b1-2)Man(a1-3)[Neu5Ac(a2-6)Gal(b1-4)GlcNAc(b1-2)Man(a1-6)]Man(b1-4)GlcNAc(b1-4)GlcNAc
Summary of the method: as §1

[16] = target: Neu5Ac(a2-3)Gal(b1-4)GlcNAc(b1-2)[Neu5Ac(a2-3)Gal(b1-4)GlcNAc(b1-4)]Man(a1-3)[GlcNAc(b1-4)][Neu5Ac(a2-3)Gal(b1-4)GlcNAc(b1-2)[Neu5Ac(a2-3)Gal(b1-4)GlcNAc(b1-6)]Man(a1-6)]Man(b1-4)GlcNAc(b1-4)GlcNAc
Summary of the method: as §1

[17] = target: Neu5Ac(a2-3)Gal(b1-4)GlcNAc(b1-2)[Neu5Ac(a2-3)Gal(b1-4)GlcNAc(b1-4)]Man(a1-3)[GlcNAc(b1-4)][Neu5Ac(a2-3)Gal(b1-4)GlcNAc(b1-4)Man(a1-6)]Man(b1-4)GlcNAc(b1-4)GlcNAc
Summary of the method: as §1

[18] = target: Neu5Ac(a2-3)Gal(b1-4)GlcNAc(b1-2)[Neu5Ac(a2-3)Gal(b1-4)GlcNAc(b1-6)]Man(a1-6)[Neu5Ac(a2-3)Gal(b1-4)GlcNAc(b1-2)Man(a1-3)][GlcNAc(b1-4)]Man(b1-4)GlcNAc(b1-4)GlcNAc
Summary of the method: as §1

[19] = target: Neu5Ac(a2-3)Gal(b1-4)GlcNAc(b1-3)Gal
Summary of the method: as §1

[20] = target: Neu5Ac(a2-3)Gal(b1-4)GlcNAc(b1-3)Gal(b1-3)GlcNAc
Summary of the method: as §1

[21] = target: Neu5Ac(a2-3)Gal(b1-4)GlcNAc(b1-3)Gal(b1-4)GlcNAc
Summary of the method: as §1

[22] = target: Neu5Ac(a2-3)Gal(b1-4)GlcNAc(b1-3)Gal(b1-4)GlcNAc(b1-2)Man(a1-3)[Neu5Ac(a2-3)Gal(b1-4)GlcNAc(b1-3)Gal(b1-4)GlcNAc(b1-2)Man(a1-6)]Man(b1-4)GlcNAc(b1-4)GlcNAc
Summary of the method: as §1

[23] = target: Neu5Ac(a2-3)Gal(b1-4)GlcNAc(b1-3)Gal(b1-4)GlcNAc(b1-3)Gal(b1-4)GlcNAc
Summary of the method: as §1

[24] = target: Neu5Ac(a2-3)Gal(b1-4)GlcNAc(b1-3)Gal(b1-4)GlcNAc(b1-3)Gal(b1-4)GlcNAc(b1-2)Man(a1-3)[Neu5Ac(a2-3)Gal(b1-4)GlcNAc(b1-3)Gal(b1-4)GlcNAc(b1-3)Gal(b1-4)GlcNAc(b1-2)Man(a1-6)]GalNAc
Summary of the method: as §1

[25] = target: Neu5Ac(a2-3)Gal(b1-4)GlcNAc(b1-3)Gal(b1-4)GlcNAc(b1-3)GalNAc
Summary of the method: as §1

[26] = target: Neu5Ac(a2-3)Gal(b1-4)GlcNAc(b1-3)Gal(b1-4)GlcNAc(b1-3)[Neu5Ac(a2-3)Gal(b1-4)GlcNAc(b1-3)Gal(b1-4)GlcNAc(b1-6)]GalNAc
Summary of the method: as §1

[27] = target: Neu5Ac(a2-3)Gal(b1-4)GlcNAc(b1-3)Gal(b1-4)GlcNAc(b1-6)[Gal(b1-3)]GalNAc
Summary of the method: as §1

[28] = target: Neu5Ac(a2-3)Gal(b1-4)GlcNAc(b1-3)Gal(b1-4)[Fuc(a1-3)]GlcNAc
Summary of the method: as §1

[29] = target: Neu5Ac(a2-3)Gal(b1-4)GlcNAc(b1-3)GalNAc
Summary of the method: as §1

[30] = target: Neu5Ac(a2-3)Gal(b1-4)GlcNAc(b1-3)[Neu5Ac(a2-3)Gal(b1-4)GlcNAc(b1-6)]GalNAc
Summary of the method: as §1

B1: CBM40 CPF071 (Clostridium perfringens) (protein)
chain: MAHHHHHHVGTGSNDDDDKSPDPMLSSLGEYKDINLESSNASNITYDLEKYKNLDEGTIVVRFNSKDSKIQSLLGISNSKTKNGYFNFYVTNSRVGFELRNQKNEGNTQNGTENLVHMYKDVALNDGDNTVALKIEKNKGYKLFLNGKMIKEVKDTNTKFLNNIENLDSAFIGKTNRYGQSNEYNFKGNIGFMNIYNEPLGDDYLLSKTGETK
With B1 the “glycan array binding signal (z-score)” value [1] was 0.31, the “glycan array binding signal (z-score)” value [2] was 2.38 and the “glycan array binding signal (z-score)” value [3] was 0.256. The “glycan array binding signal (z-score)” value [4] was 1.09, the “glycan array binding signal (z-score)” value [5] was -0.254 and the “glycan array binding signal (z-score)” value [6] was -0.107. The “glycan array binding signal (z-score)” value [7] was 1.15, the “glycan array binding signal (z-score)” value [8] was 10.7 and the “glycan array binding signal (z-score)” value [9] was 1.88. For the same binder, the “glycan array binding signal (z-score)” value [10] was 1.39, the “glycan array binding signal (z-score)” value [11] was 0.05 and the “glycan array binding signal (z-score)” value [12] was 0.421. The “glycan array binding signal (z-score)” value [13] was -0.305, the “glycan array binding signal (z-score)” value [14] was 0.711 and the “glycan array binding signal (z-score)” value [15] was 0.048. The “glycan array binding signal (z-score)” value [16] was -0.082, the “glycan array binding signal (z-score)” value [17] was -0.287 and the “glycan array binding signal (z-score)” value [18] was 0.7. The “glycan array binding signal (z-score)” value [19] was 1.47, the “glycan array binding signal (z-score)” value [20] was 0.735 and the “glycan array binding signal (z-score)” value [21] was 1.96. For the same binder, the “glycan array binding signal (z-score)” value [22] was 1.05, the “glycan array binding signal (z-score)” value [23] was 1.63 and the “glycan array binding signal (z-score)” value [24] was 0.275. For the same binder, the “glycan array binding signal (z-score)” value [25] was 0.084, the “glycan array binding signal (z-score)” value [26] was 0.425 and the “glycan array binding signal (z-score)” value [27] was -0.141. For the same binder, the “glycan array binding signal (z-score)” value [28] was -0.365, the “glycan array binding signal (z-score)” value [29] was 0.209 and the “glycan array binding signal (z-score)” value [30] was 0.202.
